Reference: PubChem BioAssay AID686979 (National Center for Advancing Translational Sciences (NCATS), 2013)
About 50,000 (12%) of roughly 420,000 compounds were called active. Inconclusive means that the source gave no clear call. Such entries were picked first, then a sample of the others. Calls come from the whole dose curve; as a rule, active = well fitted inhibition curve with a large enough effect; inconclusive = small, poorly fitted or top-dose-only effect; inactive = flat fitted curve, though single readings scatter. Potencies of inconclusive entries are left out as doubtful fits.
Potency is the fitted concentration of half-maximal effect; tags give direction and shape of the fitted curve.

Test: qHTS for Inhibitors of human tyrosyl-DNA phosphodiesterase 1 (TDP1): qHTS in cells in presence of CPT; note: nearly all actives have a fitted effect of over 55% in size
Conditions: chicken DT40 Tdp1-/-;hTDP1 cells + 20 nM CPT, ATP luminescence, 48 h; series mostly up to 46.2 µM
Method in brief: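 Chicken DT40 Tdp1-/- cells complemented with human TDP1, 400 cells/well, exposed to compounds plus 20 nM camptothecin for at least 48 h at 37 C; viability read as ATP content by CellTiter-Glo luminescence.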
In the case of CCCS(=O)(=O)N1CCCC(C(=O)N2CCC(Cc3ccccc3)CC2)C1 (stereo not drawn), the Potency is reported as inconclusive [inhibitor, single point]. With Cc1ccc(-n2c(C)cc3c2CCCC3=O)cc1 the Potency was “inactive”. In the case of CCC(C)c1ccc(NC(=O)C2CC3CCC2C3)cc1 (stereo not drawn), the Potency is reported as inconclusive [inhibitor, single point]. For COc1ccccc1/C=C/C(=O)Nc1ccc2c(c1)OCCO2, the Potency was active: 8.2 µM. With O=[N+]([O-])c1cc(F)c2cccnc2c1O the Potency was active: 9.2 µM. For Cc1nn(Cc2c(F)c(F)c(F)c(F)c2F)c(C)c1NC(=O)c1ccc(COc2ccc(F)cc2)o1, the Potency was active: 16.4 µM. With CCN(CC)CCN(C(=O)c1ccc2c(c1)OCCO2)c1nc2c(Cl)cccc2s1 the Potency was active: 18.4 µM. For Cc1cc(C(=O)N2CCC2(C)C(=O)NCc2cccc3ccccc23)nn1C (stereo not drawn), the Potency was “inactive”. With COc1ccccc1CNC(=O)C(C)Sc1ccc(C)cc1 (stereo not drawn) the Potency was “inactive”. With COc1ccc(NC(=O)CN(C)C(=O)CCCc2nc3ccccc3s2)cc1 the Potency was “inactive”. In the case of COc1ccc(N2CCN(C(c3cccs3)C(C)NC(=O)c3ccc4c(c3)OCO4)CC2)cc1 (stereo not drawn), the Potency is reported as inconclusive [inhibitor, single point]. For O=C(NC1CCCCC1)C(c1cccs1)N(C(=O)C(F)(F)F)c1ccccc1 (stereo not drawn), the Potency was inconclusive [inhibitor, single point]. For COCC(C)n1c(C)cc(C(=O)CSc2cc(C)c3ccccc3n2)c1C (stereo not drawn), the Potency was inconclusive [inhibitor, single point]. For O=C(CN1CCN(c2ccccc2O)CC1)Nc1ccnn1C1CCCC1, the Potency was active: 20.6 µM. For CCN(CC)S(=O)(=O)c1ccc(-c2cn3cc(Cl)ccc3n2)cc1, the Potency was inconclusive [inhibitor, single point]. In the case of Cc1oc(-c2cccc(Cl)c2)nc1CN1CCCC(C(=O)N2CCN(c3ccc(F)cc3)CC2)C1 (stereo not drawn), the Potency is reported as active: 7.31 µM. In the case of O=C(CN1CCC(NC(=O)Cc2ccccc2)CC1)Nc1cccc2ccccc12, the Potency is reported as inconclusive [inhibitor, full curve]. For Cc1cccc(Cn2c(C)c(CNC3CCCCCC3)c(C(=O)O)c2C)c1, the Potency was “inactive”. With COc1c(Cl)cc(C(=O)N(Cc2ccc(C)o2)C2CCS(=O)(=O)C2)cc1Cl (stereo not drawn) the Potency was inconclusive [inhibitor, single point]. With Cn1c(-n2c(CCCN3C(=O)c4ccccc4C3=O)nc3ccccc3c2=O)nc2ccccc21 the Potency was inconclusive [inhibitor, single point]. In the case of COc1ccc2nc(NC(=O)c3ccc(Br)s3)sc2c1, the Potency is reported as inconclusive [inhibitor, single point]. With CCCN(CCC)CCCNC(=O)Cn1cc2c(n1)-c1c(oc(C(=O)N3CCCC3)c1C)CC2 the Potency was “inactive”. For O=S1(=O)CC(O)C(NCc2ccco2)C1 (stereo not drawn), the Potency was “inactive”. For CCOc1ccc(/C=N/NC(=O)Cc2csc(Nc3cccc(C(F)(F)F)c3)n2)cc1, the Potency was inconclusive [inhibitor, single point]. In the case of CCCNC(=O)C(CC)n1nc(CC)n2c(cc3oc(C)cc32)c1=O (stereo not drawn), the Potency is reported as active: 25.9 µM. In the case of Cc1cc(C(=O)CSc2nnnn2-c2ccccc2)c(C)n1-c1ccc2c(c1)OCO2, the Potency is reported as active: 23.1 µM. In the case of O=C(CSc1nnnn1-c1cccnc1)Nc1ccccc1F, the Potency is reported as “inactive”. With CC(C)N1CCC1(C)C(=O)Nc1ccccc1OC(F)F (stereo not drawn) the Potency was “inactive”. For CCN(CC)C(=O)CSc1nnc(-c2ccccc2)n1-c1ccccc1, the Potency was inconclusive [inhibitor, single point]. For CCOC(=O)c1cc2c(=O)n3ccccc3nc2n(CC2CCCO2)c1=NC(=O)c1ccc(OC)cc1OC (stereo not drawn), the Potency was inconclusive [inhibitor, single point]. In the case of O=C(Nc1cc(Oc2ccccc2)cc([N+](=O)[O-])c1)C12CC3CC(C1)CC(n1cnc(Cl)n1)(C3)C2, the Potency is reported as inconclusive [inhibitor, single point]. In the case of COc1cccc(-c2cncnc2NCc2ccccc2OC)c1, the Potency is reported as inconclusive [inhibitor, single point]. In the case of COc1cccc(NC(=O)Cn2c(=O)n(CCc3ccccc3)c(=O)c3c4c(sc32)CN(C(C)=O)CC4)c1, the Potency is reported as inconclusive [inhibitor, partial curve]. For CC1C(=O)N(Cc2cn(CCC3OCCCO3)nn2)CCS(=O)(=O)N1Cc1ccc(-c2ccc(F)cc2)cc1 (stereo not drawn), the Potency was active: 11.6 µM. With Cc1ccc(C(C(=O)NC2CCCCC2)N(C(=O)c2csnn2)C2CC2)cc1 (stereo not drawn) the Potency was inconclusive [inhibitor, single point]. For CN(Cc1ccccc1)C(=O)c1ccc2sc([C@H]3C[C@H](O)[C@@H](CO)O3)nc2c1, the Potency was “inactive”. With CC#CCN1C(=O)N[C@@H](c2ccccc2)C(C(=O)OC)=C1C the Potency was inconclusive [inhibitor, single point]. In the case of CCCc1ccc(C(=O)O/N=C(\N)c2ccccn2)cc1, the Potency is reported as inconclusive [inhibitor, full curve, poor fit]. With Cc1ccccc1C(=O)N1CCN(c2ccc([N+](=O)[O-])c(NCc3ccco3)c2)CC1 the Potency was inconclusive [inhibitor, single point]. In the case of COc1cccc(C(C(=O)NC2CCCC2)N(C(=O)c2ccco2)c2ccccc2)c1OC (stereo not drawn), the Potency is reported as inconclusive [inhibitor, single point]. For Cc1cccc(OCc2nnc(SCC(=O)N3CCN(c4ccccc4)CC3)o2)c1C, the Potency was inconclusive [inhibitor, single point]. With N#Cc1ccc(CN2CCN(C(=O)c3cccc(S(=O)(=O)N4CCCCCC4)c3)CC2)cc1 the Potency was inconclusive [inhibitor, single point]. With CC1(C)CC(n2c(=S)[nH]c3ccccc3c2=O)CCO1 (stereo not drawn) the Potency was “inactive”. For C[C@@H]1CCN=C(N)S1, the Potency was “inactive”. With O=C1c2cccc3cccc(c23)C(=O)N1CCCN1CCN(c2ccc(F)cc2)CC1 the Potency was inconclusive [inhibitor, single point]. In the case of Cc1coc2c1c(C)cc1oc(=O)c(CC(=O)NCCCCCC(=O)O)c(C)c12, the Potency is reported as “inactive”. With CCS(=O)(=O)N1CCC(NC(=O)C(Cc2ccc(OC)c(OC)c2)NC(C)=O)CC1 (stereo not drawn) the Potency was “inactive”. For CC1CC2(C)Oc3ccccc3CC2C(C)C1CNCCCN(C)C (stereo not drawn), the Potency was active: 4.11 µM. With Cc1ccc(/C=C2/NC(=O)N(Cc3ccccc3)C2=O)o1 the Potency was active: 16.4 µM. For COc1ccc(CCNC(=O)CCCn2c(=O)c3cccn3c3cccnc32)c(OC)c1, the Potency was inconclusive [inhibitor, single point]. With CCOC(=O)C1=C(COC(=O)/C=C/c2ccc(OC)cc2)NC(=O)NC1C (stereo not drawn) the Potency was active: 9.2 µM. For CCc1ccc(C(=O)CN(C#N)c2nc(C)cc(C)n2)cc1, the Potency was inconclusive [inhibitor, single point]. With Cc1nn(-c2ccc(C(=O)Nc3nnc(C4CC4)s3)cc2)c(C)c1Cl the Potency was “inactive”. In the case of O=C(NNc1ccc(C(F)(F)F)cc1[N+](=O)[O-])c1ccc(NS(=O)(=O)c2ccc(F)cc2)cc1, the Potency is reported as inconclusive [inhibitor, single point]. With CCN(CC)S(=O)(=O)c1ccc(NC(=O)c2cc(=O)[nH]c3ccccc23)cc1 the Potency was inconclusive [inhibitor, single point]. With Nc1cc2c3c(cccc3c1)C(=O)N(CCN1CCCC1)C2=O the Potency was active: 0.731 µM. With COc1ccc(C(C)C)cc1S(=O)(=O)N1CCC(C(=O)NCc2cccnc2)CC1 the Potency was “inactive”. With CCO/N=C1\C(=O)N(c2ccccc2)c2ccccc21 the Potency was “inactive”. With Cc1ccc(NC(=O)CC2SC(=O)N(c3ccccc3)C2=O)cc1 (stereo not drawn) the Potency was active: 9.2 µM. With CCOc1ccc(NC(=O)Nc2cc(C(C)C)c(O)cc2C)cc1 the Potency was inconclusive [inhibitor, single point]. For FC(F)(F)Oc1ccc(Nc2nc(N3CCOCC3)nc(N3CCOCC3)n2)cc1, the Potency was active: 18.4 µM. For CCOc1ccc(C(=O)Nc2ccc(-c3nc4cc(C(C)C)ccc4o3)cc2)cc1Cl, the Potency was inconclusive [inhibitor, single point]. In the case of CCc1cccc(NC(=O)c2nc(-c3ccncc3)no2)c1, the Potency is reported as inconclusive [inhibitor, single point]. For CCN1C(=O)c2cccc3c(S(=O)(=O)Nc4ccccn4)ccc1c23, the Potency was inconclusive [inhibitor, partial curve]. In the case of Cc1ccc(-n2c(C)cc(C(=O)CSc3nnc4ccccn34)c2C)cc1, the Potency is reported as active: 23.1 µM. In the case of O=C(c1ccc(NS(=O)(=O)c2cccs2)cc1)N1CCN(c2ccccc2Cl)CC1, the Potency is reported as inconclusive [inhibitor, single point]. With O=C(CSc1nc2ncc(Cl)cc2[nH]1)Nc1cccc(F)c1 the Potency was inconclusive [inhibitor, single point]. For COc1ccc(-c2cc(C(=O)OCc3ccccn3)c3ccccc3n2)cc1, the Potency was inconclusive [inhibitor, partial curve]. With COc1ccccc1CCC(=O)OCC(=O)N1CCN(S(=O)(=O)c2ccc(C)cc2C)CC1 the Potency was active: 25.9 µM. For COCC(=O)Nc1cc(Cl)ccc1C, the Potency was “inactive”. In the case of Nc1nc(SCC(=O)Nc2ccc([N+](=O)[O-])cc2)n[nH]1, the Potency is reported as “inactive”. For COc1cc(C(=O)OCC(=O)NCc2ccc(F)cc2)ccc1OCC(C)C, the Potency was inconclusive [inhibitor, single point]. With COc1ccc(CCNC(=O)CN(c2ccc(OC)c(OC)c2)S(C)(=O)=O)cc1OC the Potency was “inactive”.
